According to PMC6212790:
This is one part of the list. At the low end of the ranking, values are background and their order means little.
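Also: rank score from −0.5 (least bound) to 0.5 (best bound).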

What follows are sequences tested against T1, GST-Rok-C97-191 (UniProt O34857) (assay: protein binding microarray). Conditions: Rok is a gene silencer of Bacillus subtilis; high values mean tight binding; most listed sequences are background and not binding sites; double strand, one strand shown.
T1 sequence: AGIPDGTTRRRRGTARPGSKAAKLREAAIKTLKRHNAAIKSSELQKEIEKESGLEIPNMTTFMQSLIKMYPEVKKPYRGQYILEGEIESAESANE
For CATCAGCA, the binding signal was 0.122 E-score.
AGGTGAGG showed a binding signal of -0.0995 E-score.
Work on GCTCTCAA yielded a binding signal of -0.0958 E-score.
ACATGGAG was tested, and the binding signal was 0.0916 E-score.
With CACGGACC the binding signal was -0.269 E-score.
GGAGTCGA gave a binding signal of -0.16 E-score.
ATCCTGGC gave a binding signal of 0.0703 E-score.
For GGCATTAA, the binding signal was -0.0261 E-score.
GCAAGTGC showed a binding signal of -0.0176 E-score.
GCATTAGC was tested, and the binding signal was 0.00966 E-score.
For ATCATAAC, the binding signal was 0.129 E-score.
CACGGAGG gave a binding signal of -0.299 E-score.
Work on AATGTAAG yielded a binding signal of 0.112 E-score.
In the case of TCCACGAA, the binding signal was -0.0391 E-score.
Sequence CATCCTTA has a binding signal of 0.0396 E-score.
In the case of AGTCAACA, the binding signal was -0.0737 E-score.
In the case of CGCGCCAA, the binding signal was -0.117 E-score.
Work on TAAAATTA yielded a binding signal of 0.306 E-score.
In the case of TAAAGTTA, the binding signal was 0.0978 E-score.
CCAATTCA gave a binding signal of -0.126 E-score.
CAATAACA gave a binding signal of -0.0401 E-score.
Work on AAACGCGT yielded a binding signal of 0.0909 E-score.
GGTCTCAA was tested, and the binding signal was -0.108 E-score.
Sequence AGTAGTGA has a binding signal of 0.121 E-score.
CGCTAAAG showed a binding signal of 0.0345 E-score.
Work on CGCATCCA yielded a binding signal of -0.00168 E-score.
With GAGTTTCA the binding signal was -0.0326 E-score.
For ATCGTGAA, the binding signal was 0.0491 E-score.
Work on GGAGTCCA yielded a binding signal of -0.216 E-score.
ATAGTCGA was tested, and the binding signal was 0.0241 E-score.
CTAACGTA showed a binding signal of 0.0977 E-score.
Work on TCAGCACA yielded a binding signal of 0.00937 E-score.
Sequence AAGAATGC has a binding signal of -0.0181 E-score.
For CAACCCAC, the binding signal was -0.242 E-score.
In the case of CTTTTTAA, the binding signal was 0.0854 E-score.
With CACCGGAC the binding signal was -0.0977 E-score.
With ATCGAGTA the binding signal was 0.218 E-score.
With AAAAGGGG the binding signal was -0.252 E-score.
For ACCCAGGA, the binding signal was -0.0977 E-score.
Work on ACGTTTAC yielded a binding signal of 0.0121 E-score.
In the case of GACTTACC, the binding signal was 0.0874 E-score.
AAATGCGT was tested, and the binding signal was -0.0125 E-score.
ACTTGACT was tested, and the binding signal was -0.0226 E-score.
Work on GATCACCC yielded a binding signal of -0.283 E-score.
GTGCCCAC was tested, and the binding signal was -0.14 E-score.
With TAGTACAA the binding signal was 0.311 E-score.
Work on ACACGGCG yielded a binding signal of -0.236 E-score.
Sequence CACTACAA has a binding signal of 0.173 E-score.
TCCCTTAA was tested, and the binding signal was -0.0648 E-score.
CCCCAACA showed a binding signal of -0.0678 E-score.
CGTCTACC showed a binding signal of -0.0348 E-score.
AGCCACTG was tested, and the binding signal was -0.26 E-score.
For CCGATAGC, the binding signal was 0.0218 E-score.
CACTCGAA showed a binding signal of 0.0354 E-score.
For TACCGGTA, the binding signal was 0.355 E-score.
CGGACAAC showed a binding signal of -0.0352 E-score.
Sequence GAGGTTGA has a binding signal of -0.067 E-score.
AGGGCAAG gave a binding signal of -0.251 E-score.
For AACATAGT, the binding signal was 0.184 E-score.
For GGGCTATA, the binding signal was 0.157 E-score.
CAAGGAGA was tested, and the binding signal was -0.113 E-score.
AATTAGGG showed a binding signal of 0.00788 E-score.
CTACGCTC showed a binding signal of 0.0379 E-score.
In the case of GATGCCAC, the binding signal was -0.166 E-score.
GTCTAGAC gave a binding signal of -0.0432 E-score.
Sequence AGCCGAGA has a binding signal of -0.0879 E-score.
ATTAGACG showed a binding signal of 0.0479 E-score.
ACCGTCGC gave a binding signal of -0.194 E-score.
In the case of GCCGGCGA, the binding signal was -0.228 E-score.
In the case of GGGTGGAC, the binding signal was -0.267 E-score.
Work on AATCCCGG yielded a binding signal of -0.153 E-score.
For ACTGGTTA, the binding signal was 0.0888 E-score.
Sequence ACAGGGAT has a binding signal of -0.128 E-score.
GGACGCGA showed a binding signal of -0.308 E-score.
Work on CATTAAAG yielded a binding signal of 0.0022 E-score.
With AAGATTTC the binding signal was 0.0786 E-score.
For CAGTTAAG, the binding signal was -0.0106 E-score.
CACACCCG gave a binding signal of -0.162 E-score.
CCACTTCG showed a binding signal of -0.169 E-score.
Sequence AACGGGTA has a binding signal of 0.126 E-score.
For ACGTCCAG, the binding signal was -0.068 E-score.
GCAATTGC gave a binding signal of 0.135 E-score.
Sequence CTGTGGCA has a binding signal of -0.306 E-score.
For CGTACAAA, the binding signal was 0.236 E-score.
AGAATGCG showed a binding signal of 0.105 E-score.
For CGTCATCA, the binding signal was -0.157 E-score.
For AGCAATCC, the binding signal was -0.0141 E-score.
Work on AGGTCTAC yielded a binding signal of 0.036 E-score.
In the case of GAACATTA, the binding signal was 0.0913 E-score.
With GATCAATC the binding signal was 0.0299 E-score.
ATACGTTA gave a binding signal of 0.153 E-score.
For AAGTGCGA, the binding signal was -0.094 E-score.
In the case of TCAAGCAA, the binding signal was -0.0673 E-score.
In the case of CAAATCAG, the binding signal was -0.0544 E-score.
ATTGGAGA showed a binding signal of -0.0148 E-score.
Work on CCTCATGA yielded a binding signal of -0.212 E-score.
ATCGCGGA was tested, and the binding signal was 0.0687 E-score.
Sequence ACACGAGG has a binding signal of -0.119 E-score.
With ATAGTATA the binding signal was 0.334 E-score.
In the case of ACGACACC, the binding signal was -0.0346 E-score.
AAAAGCAG gave a binding signal of -0.00674 E-score.
In the case of AGTGAGCA, the binding signal was -0.117 E-score.
AACTGCCT gave a binding signal of 0.121 E-score.
Work on GTTGAGGA yielded a binding signal of 0.0201 E-score.
CCCTTTAC was tested, and the binding signal was -0.0671 E-score.
For AAATCTCC, the binding signal was 0.207 E-score.
For CAGCGGAG, the binding signal was -0.344 E-score.
In the case of AGGACGTC, the binding signal was -0.138 E-score.
In the case of CACCATTC, the binding signal was -0.13 E-score.
AGCGGCAA gave a binding signal of -0.113 E-score.
GAAGTCCA showed a binding signal of -0.0459 E-score.
GAGACAAA was tested, and the binding signal was -0.107 E-score.
For TCAATCGA, the binding signal was -0.0356 E-score.
With GTAAAATA the binding signal was 0.306 E-score.
AGAAGCAG showed a binding signal of -0.0595 E-score.
Work on GGCTAAAA yielded a binding signal of 0.0638 E-score.
For TATGGAGA, the binding signal was 0.0429 E-score.
AAGAAGTA gave a binding signal of 0.168 E-score.
GCAACCTA showed a binding signal of 0.0995 E-score.
AGTGCTAG gave a binding signal of 0.0523 E-score.
For ATTGCCAC, the binding signal was 0.0397 E-score.
For ATCAAGGA, the binding signal was -0.0747 E-score.
Work on CGAACCCC yielded a binding signal of -0.186 E-score.
With GATTGTGA the binding signal was 0.0505 E-score.
Sequence AGCAGGAG has a binding signal of -0.319 E-score.
For GTCGGTTA, the binding signal was 0.00256 E-score.
For ATATCCTC, the binding signal was 0.0405 E-score.
For ATCGACCG, the binding signal was 0.072 E-score.
With GTGGCAAC the binding signal was -0.207 E-score.
ACTAACCG gave a binding signal of 0.0565 E-score.
Work on ACGTGTAG yielded a binding signal of -0.0418 E-score.
TAGCTGAA was tested, and the binding signal was 0.172 E-score.
ACGACGTG gave a binding signal of 0.0128 E-score.
CAGATCTA showed a binding signal of 0.119 E-score.
For CAAGATAC, the binding signal was 0.0729 E-score.
ACTGACAA showed a binding signal of 0.0467 E-score.
TATGGGCA gave a binding signal of -0.0382 E-score.
CCTGAACG was tested, and the binding signal was -0.243 E-score.
Sequence TAAGGGAA has a binding signal of 0.0242 E-score.
With CGGGAGGC the binding signal was -0.194 E-score.
For CTAGTGTC, the binding signal was -0.0331 E-score.
With AACCACCG the binding signal was -0.0914 E-score.
Sequence CTGAAGGC has a binding signal of -0.274 E-score.
With CACCACGA the binding signal was -0.232 E-score.
ACAAAATA was tested, and the binding signal was 0.267 E-score.
ATTGAAAT gave a binding signal of 0.181 E-score.
Sequence GCGTAAGC has a binding signal of -0.143 E-score.
CTCCCCCA was tested, and the binding signal was -0.318 E-score.
With CAGGATAC the binding signal was -0.0781 E-score.
For GGGCTAGA, the binding signal was -0.153 E-score.
For CATGAAAA, the binding signal was 0.0479 E-score.
In the case of GCGTATTA, the binding signal was 0.122 E-score.
For CAATCTCC, the binding signal was -0.0128 E-score.
With GGTTAGCA the binding signal was 0.0837 E-score.
For GCGTGAAC, the binding signal was -0.0676 E-score.
With ACAAATGT the binding signal was 0.123 E-score.
AGCGGTAT gave a binding signal of 0.237 E-score.
AAATCGGC gave a binding signal of -0.0381 E-score.
For ATCCACTA, the binding signal was 0.0698 E-score.
Sequence AGTGGATA has a binding signal of 0.0314 E-score.
Sequence CTCCTGGA has a binding signal of 0.00559 E-score.
In the case of ACTGGATC, the binding signal was -0.191 E-score.
CCATATAC gave a binding signal of 0.161 E-score.
Work on CAGTCGAG yielded a binding signal of -0.0692 E-score.
Sequence AATTTGTA has a binding signal of 0.346 E-score.
In the case of ACGTATCA, the binding signal was 0.105 E-score.
For CATCGGTA, the binding signal was 0.173 E-score.
Work on GAACTCGC yielded a binding signal of -0.163 E-score.
GCGTTCAC showed a binding signal of -0.208 E-score.
Work on AGTTCTCC yielded a binding signal of -0.0101 E-score.
With AAATCTGG the binding signal was -0.188 E-score.
For CTCAGGAG, the binding signal was -0.192 E-score.
